Scores whose standard error is large were omitted. The source holds two more conditions with little spread; they are left out. Read del as a deletion of the residues named and ins as an insertion between two positions. For some of these results: The data file names ogerin without a concentration.
B1: GPR68, Q15743 (parent)
chain: MGNITADNSSMSCTIDHTIHQTLAPVVYVTVLVVGFPANCLSLYFGYLQIKARNELGVYLCNLTVADLFYICSLPFWLQYVLQHDNWSHGDLSCQVCGILLYENIYISVGFLCCISVDRYLAVAHPFRFHQFRTLKAAVGVSVVIWAKELLTSIYFLMHEEVIEDENQHRVCFEHYPIQAWQRAINYYRFLVGFLFPICLLLASYQGILRAVRRSHGTQKSRKDQIQRLVLSTVVIFLACFLPYHVLLLVRSVWEASCDFAKGVFNAYHFSLLLTSFNCVADPVLYCFVSETTHRDLARLRGACLAFLTCSRTGRAREAYPLGAPEASGKSGAQGEEPELLTKLHPAFQTPNSPGSGGFPTGRLA

Assays:
[1] = variants of: B1; experiment: cAMP reporter score (Enrich2 score, wild type = 0); higher = more signal; HEK293T, FACS bins
[2] = variants of: B1; experiment: surface expression score (Enrich2 score, wild type = 0); higher = more signal; HEK293T, FACS bins

Variant | cAMP reporter score ([1]; pH 5.5) | cAMP reporter score ([1]; pH 6) | cAMP reporter score ([1]; pH 6, modulator: ogerin) | cAMP reporter score ([1]; pH 6.5, modulator: ogerin) | surface expression score [2]
MGNITADNSSMSCTIDHTIHQTLAPVVYVTVLVVGFPANCLSLYFTYLQIKARNELGVYLCNLTVADLFYICSLPFWLQYVLQHDNWSHGDLSCQVCGILLYENIYISVGFLCCISVDRYLAVAHPFRFHQFRTLKAAVGVSVVIWAKELLTSIYFLMHEEVIEDENQHRVCFEHYPIQAWQRAINYYRFLVGFLFPICLLLASYQGILRAVRRSHGTQKSRKDQIQRLVLSTVVIFLACFLPYHVLLLVRSVWEASCDFAKGVFNAYHFSLLLTSFNCVADPVLYCFVSETTHRDLARLRGACLAFLTCSRTGRAREAYPLGAPEASGKSGAQGEEPELLTKLHPAFQTPNSPGSGGFPTGRLA [G46T] | 0.738 | 0.006 | 0.666 | -0.611 | -2.1
MGNITADNSSMSCTIDHTIHQTLAPVVYVTVLVVGFPANCLSLYFSYLQIKARNELGVYLCNLTVADLFYICSLPFWLQYVLQHDNWSHGDLSCQVCGILLYENIYISVGFLCCISVDRYLAVAHPFRFHQFRTLKAAVGVSVVIWAKELLTSIYFLMHEEVIEDENQHRVCFEHYPIQAWQRAINYYRFLVGFLFPICLLLASYQGILRAVRRSHGTQKSRKDQIQRLVLSTVVIFLACFLPYHVLLLVRSVWEASCDFAKGVFNAYHFSLLLTSFNCVADPVLYCFVSETTHRDLARLRGACLAFLTCSRTGRAREAYPLGAPEASGKSGAQGEEPELLTKLHPAFQTPNSPGSGGFPTGRLA [G46S] | -0.48 | 1.18 | -0.422 | -0.704 | -0.406
MGNITADNSSMSCTIDHTIHQTLAPVVYVTVLVVGFPANCLSLYFWYLQIKARNELGVYLCNLTVADLFYICSLPFWLQYVLQHDNWSHGDLSCQVCGILLYENIYISVGFLCCISVDRYLAVAHPFRFHQFRTLKAAVGVSVVIWAKELLTSIYFLMHEEVIEDENQHRVCFEHYPIQAWQRAINYYRFLVGFLFPICLLLASYQGILRAVRRSHGTQKSRKDQIQRLVLSTVVIFLACFLPYHVLLLVRSVWEASCDFAKGVFNAYHFSLLLTSFNCVADPVLYCFVSETTHRDLARLRGACLAFLTCSRTGRAREAYPLGAPEASGKSGAQGEEPELLTKLHPAFQTPNSPGSGGFPTGRLA [G46W] | -1.2 | -1 | -1.49 | -1.32 | -1.77
MGNITADNSSMSCTIDHTIHQTLAPVVYVTVLVVGFPANCLSLYFVYLQIKARNELGVYLCNLTVADLFYICSLPFWLQYVLQHDNWSHGDLSCQVCGILLYENIYISVGFLCCISVDRYLAVAHPFRFHQFRTLKAAVGVSVVIWAKELLTSIYFLMHEEVIEDENQHRVCFEHYPIQAWQRAINYYRFLVGFLFPICLLLASYQGILRAVRRSHGTQKSRKDQIQRLVLSTVVIFLACFLPYHVLLLVRSVWEASCDFAKGVFNAYHFSLLLTSFNCVADPVLYCFVSETTHRDLARLRGACLAFLTCSRTGRAREAYPLGAPEASGKSGAQGEEPELLTKLHPAFQTPNSPGSGGFPTGRLA [G46V] | -0.834 | -0.291 |  | -1.31 | -2.36
